Among all 48,000 compounds or so, about 450 (0.94%) were called active. Inconclusive results, whose numbers are uncertain, are shown with a selection of clear calls. Calls follow the shape of the dose curve; as a rule, active = well fitted inhibition curve with a large enough effect; inconclusive = small, poorly fitted or top-dose-only effect; inactive = no such curve, though single readings can be large or run the other way. Potencies of inconclusive entries are doubtful fits and often do not repeat.
Assay: Primary qHTS for Identification of Small Molecule Inhibitors of Huntingtin Promoter Activity; also: nearly all actives have a fitted effect of over 50% in size
Conditions: HEK293 HTT promoter firefly luciferase reporter (activity 0% = vehicle and -100% = no light), 24 h; activity change, negative = inhibition: at 57.5 µM (top of the series)
Procedure, shortened: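 HEK293 Fluc reporter, 2,500 cells/well, 24 h pre-culture; cpds up to 57.5 uM final, 24 h 37 degrees C; Dual-Glo, 10 min RT; normalized vehicle = 0%, zero RLU = -100%.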
For COc1cccc(CNC(=O)c2oc3c(c2C)-c2nn(Cc4cccc(Cl)c4)cc2CC3)c1, the Potency was inconclusive: 39.8 µM [inhibitor, single point]. With CC(C)C[C@@H](C(=O)N[C@H](C(=O)OC1CCCC1)c1ccccc1)[C@H](O)C(=O)NO the Potency was inconclusive: 21.7 µM [inhibitor, partial curve]. For CCN1C(C(=O)c2ccccc2)=C(OC(=O)c2ccc(OC)cc2)c2ccccc2S1(=O)=O, the Potency was inconclusive: 39.8 µM [inhibitor, single point]. With CCc1cccc(C)c1NC(=O)Cn1cc2c(n1)CCCC2 the Potency was inconclusive: 12.6 µM [inhibitor, partial curve, poor fit]. With COc1ccc(C2CC(=O)N(CC(=O)Nc3cccc(C)c3C)c3ccccc3S2)cc1OC (centres undefined) the Potency was inconclusive: 28.2 µM [inhibitor, single point]. For Cc1ccc(CSc2nc3cccnc3n2Cc2ccc(C(=O)NCCc3cccs3)cc2)cc1, the “activity change, negative = inhibition” value was inactive: -37.2%. For CCc1cccc(NC(=O)C2CCN(S(=O)(=O)c3cccc(-c4noc(C)n4)c3)CC2)c1, the Potency was inconclusive: 20 µM [inhibitor, single point]. For CCN1CCN(c2cc(C)c3cc(NC(=O)c4ccc(OC)c(OC)c4)ccc3n2)CC1, the “activity change, negative = inhibition” value was inactive: -11.9%. With Cc1ccn2cc(-c3ccc(C)c(NS(=O)(=O)c4ccc(Cl)cc4)c3)nc2c1 the Potency was inconclusive: 39.8 µM [inhibitor, single point]. With Cc1cc(C)c(NC(=O)Cn2c(=O)n(Cc3ccc(C(=O)NCc4ccco4)cc3)c(=O)c3sccc32)c(C)c1 the Potency was inconclusive: 28.2 µM [inhibitor, single point]. With CCOc1ccc(OCC)c(NS(=O)(=O)c2ccc3c(c2)CCN3C(=O)C2CCC2)c1 the Potency was inconclusive: 35.5 µM [inhibitor, single point]. With O=C(Cc1c(C(=O)O)[nH]c2ccccc12)Nc1cccc(C(F)(F)F)c1 the “activity change, negative = inhibition” value was inactive: -18.4%. With CCCN1CCN(CCCNC(=O)c2c(C)nn(-c3ccc(F)cc3)c2-n2cccc2)CC1 the “activity change, negative = inhibition” value was inactive: -27.7%. For O=C(NCc1ccc(Cl)cc1Cl)c1cccc(N2CCCS2(=O)=O)c1, the Potency was inconclusive: 31.6 µM [inhibitor, single point]. With COc1cc2c(cc1NC(=O)C(C)Oc1ccccc1)oc1ccccc12 (centres undefined) the “activity change, negative = inhibition” value was inactive: 31.9%. For Cc1ccc(N2C(=O)N(Cc3cccc(Cl)c3)c3ccccc3S2(=O)=O)cc1, the Potency was inconclusive: 39.8 µM [inhibitor, single point]. With CCCSc1ncc(Cl)c(C(=O)N2CCN(c3ccc(OC)cc3)CC2)n1 the Potency was inconclusive: 31.6 µM [inhibitor, single point]. For CCOC(=O)c1ccc(NC(=O)c2c(NCc3cccc(OC)c3OC)sc3c2CCC3)cc1, the “activity change, negative = inhibition” value was inactive: 0.476%. With CO[C@H]1C[C@@H]2CC[C@@H](C)[C@@](O)(O2)C(=O)C(=O)N2CCCC[C@@H]2C(=O)O[C@H]([C@H](C)C[C@@H]2CC[C@H](OP(C)(C)=O)[C@H](OC)C2)CC(=O)[C@H](C)C=C(C)[C@@H](O)[C@@H](OC)C(=O)[C@H](C)C[C@H](C)C=CC=CC=C1C the “activity change, negative = inhibition” value was inactive: -13.6%. For COc1ccc(N2CCN(CCCNC(=O)c3ccc4nc(N5CCCCC5)sc4c3)CC2)cc1, the Potency was inconclusive: 1.12 µM [inhibitor, full curve, poor fit]. In the case of O=C(Nc1ccc(Br)cc1)c1cccc(S(=O)(=O)N2CCc3ccccc32)c1, the Potency is reported as active: 25.1 µM. With CCCCCCC1CCC(C(=O)NC(C(=O)O)C(C)C)CC1 (centres undefined) the Potency was inconclusive: 39.8 µM [inhibitor, single point]. In the case of CC(C)c1ccc(NC(=O)CSC2=Nc3ccccc3C3=NC(CC(=O)NC4CCCCC4)C(=O)N23)cc1 (centres undefined), the Potency is reported as inconclusive: 39.8 µM [inhibitor, partial curve, poor fit]. With COc1ccc2c(Sc3ccc(Cl)cc3)c(C(=O)N3CCCCC3)[nH]c2c1 the Potency was inconclusive: 14.1 µM [inhibitor, single point]. With O=C(Nc1ccc(Cl)cc1)C1CCN(S(=O)(=O)c2ccc(Br)s2)CC1 the Potency was inconclusive: 39.8 µM [inhibitor, single point]. In the case of Cc1ccccc1C(=O)Nc1ccc(C(=O)OCc2cc(=O)n3nc(C4CC4)sc3n2)cc1, the Potency is reported as inconclusive: 12.6 µM [inhibitor, partial curve, poor fit]. With CC(=O)N1c2ccccc2C(=O)C1N1CCN(c2cc(Cl)ccc2C)CC1 (centres undefined) the Potency was inconclusive: 31.6 µM [inhibitor, partial curve, poor fit]. In the case of CC(=O)c1ccc(N2CCN(S(=O)(=O)c3ccc4[nH]c5c(c4c3)CCCCC5)CC2)cc1, the Potency is reported as inconclusive: 14.1 µM [inhibitor, partial curve]. In the case of Cc1ccc2nc(CN3CCN(C(=O)Nc4cccc(C)c4C)CC3)oc2c1, the Potency is reported as inconclusive: 25.1 µM [inhibitor, partial curve, poor fit]. With COc1ccc(NC(=O)CN2C(=O)CC(c3ccco3)Sc3ccccc32)cc1OC (centres undefined) the Potency was inconclusive: 39.8 µM [inhibitor, single point]. With Cc1nc2c(-c3ccccc3)c(C)[nH]n2c(=O)c1Cc1ccc(C(C)C)cc1 the Potency was inconclusive: 39.8 µM [inhibitor, single point]. For CCCCS(=O)CC(O)CSc1nc(-c2ccc(OC)cc2)cc(-c2ccccc2)c1C#N (centres undefined), the Potency was inconclusive: 7.08 µM [inhibitor, single point]. In the case of Cn1ncc2c(N3CCN(c4ccccc4Cl)CC3)ncnc21, the Potency is reported as inconclusive: 25.1 µM [inhibitor, partial curve, poor fit]. In the case of COc1ccc(Cn2ccc3ccc(C(=O)NO)cc32)cc1, the Potency is reported as inconclusive: 27.3 µM [inhibitor, partial curve]. With O=C(Cc1ccc(Cl)cc1)NCC(c1cccs1)S(=O)(=O)c1ccc(Cl)cc1 (centres undefined) the Potency was inconclusive: 35.5 µM [inhibitor, partial curve, poor fit]. In the case of C#Cc1cccc(Nc2ncnc3cc(OCCOC)c(OCCOC)cc23)c1, the Potency is reported as inconclusive: 17.2 µM [inhibitor, partial curve]. In the case of O=C(Cn1nc(C(F)(F)F)c2c1CCCC2)Nc1ccc(Cl)cc1, the Potency is reported as inconclusive: 39.8 µM [inhibitor, single point]. With CCc1ccc(N2C(=O)CSC23C(=O)N(Cc2cccc(F)c2)c2ccccc23)cc1 (centres undefined) the Potency was inconclusive: 31.6 µM [inhibitor, partial curve]. In the case of Cc1ccc(NC(=O)CSc2nc(C)cc(C)c2C(=O)Nc2cccc(C)c2)cc1, the Potency is reported as inconclusive: 25.1 µM [inhibitor, single point]. For CCOC(=O)c1ccc2ncc(C(=O)OCC)c(Nc3ccc(C)c(Br)c3)c2c1, the Potency was inconclusive: 22.4 µM [inhibitor, single point]. For COc1ccc(OC(C)C(=O)NCc2nc(-c3ccc(Cl)cc3)no2)cc1 (centres undefined), the Potency was inconclusive: 28.2 µM [inhibitor, partial curve]. For CC(C)Sc1ncc(Cl)c(C(=O)Nc2ccc(S(=O)(=O)N3CCCCC3C)cc2)n1 (centres undefined), the Potency was inconclusive: 31.6 µM [inhibitor, partial curve, poor fit]. With COc1ccc(C(=O)N2CCC(C(=O)Nc3ccccc3Cl)CC2)cc1 the “activity change, negative = inhibition” value was inactive: -18.2%. In the case of Cc1cccc(OCC(=O)Nc2ccc3c(c2)N(C)C(=O)c2ccccc2S3)c1, the Potency is reported as inconclusive: 28.2 µM [inhibitor, partial curve, poor fit]. In the case of COc1ccc(NC(=O)c2ccco2)cc1NC(=O)COc1ccccc1Cl, the Potency is reported as inconclusive: 25.1 µM [inhibitor, single point]. In the case of COc1ccc(NC(=O)c2nn(C)c3c2CSc2ccc(C)cc2-3)cc1OC, the Potency is reported as inconclusive: 39.8 µM [inhibitor, single point]. For N#Cc1ccc(COC[C@H]2O[C@@H](n3c(NCc4ccc(Cl)c(Cl)c4)nc4c(N)ncnc43)[C@@H](O)[C@@H]2O)cc1, the “activity change, negative = inhibition” value was inactive: -11.9%. For Cc1[nH]c(C=C2C(=O)Nc3ccccc32)c(C)c1CCC(=O)O, the Potency was inconclusive: 24.3 µM [inhibitor, partial curve]. In the case of CCOC(=O)c1ccc(NC(=O)CC2Nc3cc(C)c(C)cc3NC2=O)cc1 (centres undefined), the Potency is reported as active: 8.91 µM. For O=C(NCc1cccc(Cl)c1)C1CCN(c2nn3cc(-c4ccc(F)cc4)nc3s2)CC1, the “activity change, negative = inhibition” value was inactive: -5.05%. For Cc1ccccc1OCc1ccc(-c2nc(C#N)c(N3CCCCC3)o2)o1, the Potency was inconclusive: 15.8 µM [inhibitor, partial curve]. With CCCCNC(=O)c1cnn2c(C)c(Cc3c(C)cc(C)cc3C)c(C)nc12 the Potency was inconclusive: 12.6 µM [inhibitor, partial curve, poor fit]. In the case of COc1ccc(-c2cn3nc(SCC(=O)Nc4ccccc4F)ccc3n2)cc1, the Potency is reported as active: 3.98 µM. With COC(=O)c1scc(-c2ccc(C)cc2)c1S(=O)(=O)Nc1ccc(NC(C)=O)cc1 the Potency was inconclusive: 20 µM [inhibitor, partial curve]. For Cc1cc(C)c(NC(=O)COCc2cc(-c3cccs3)on2)c(C)c1, the Potency was inconclusive: 35.5 µM [inhibitor, single point]. With COc1ccc(S(=O)(=O)N(CC(=O)NCCSc2ccccc2)c2ccc(Cl)cc2)cc1 the Potency was inconclusive: 28.2 µM [inhibitor, partial curve]. In the case of Cc1cccc(OCC(=O)Nc2cccc(C(=O)OCc3cc(=O)n4c(C)csc4n3)c2)c1, the Potency is reported as inconclusive: 28.2 µM [inhibitor, partial curve, poor fit]. In the case of CCc1cccc(N2C(=O)CSC23C(=O)N(Cc2ccccc2F)c2ccccc23)c1 (centres undefined), the Potency is reported as inconclusive: 25.1 µM [inhibitor, single point]. For CCCSc1ncc(Cl)c(C(=O)Nc2sc3c(c2C(N)=O)CCCC3)n1, the “activity change, negative = inhibition” value was inactive: -4.73%.
Potency is read from the fitted curve at half-maximal effect; tags tell the direction and shape of the fitted curve.
